This sample is rich in variants without activity.
B1: TPR 5TU (parent)
chain: GGAUCUUCUCGAUCUAACAAAAAAGACAAAUCUGCCACAAAGCUUGAGAGCAUCUUCGGAUGCAGAGGCGGCAGCCUUCGGUGGCGCGAUAGCGCCAACGUUCUCAACUAUGACACGCAAAACGCGUGCUCCGUUGAAUGGAGUUUAUCAUG

Variants of: B1
Test: polymerase ribozyme fitness, log enrichment relative to wild type (log ratio); higher = more active; in vitro selection for triplet polymerase activity
Outline: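 Streptavidin-bead capture of gel-excised extended constructs, followed by RT-PCR, closed a single triplicate in vitro selection round. That round began by annealing PCR-built, transcribed mutant libraries of each subunit of a heterodimeric triplet polymerase ribozyme with a biotinylated primer, the partner subunit and triplets, then incubating them frozen at −7 °C. After Illumina sequencing of inputs and outputs, genotypes needed ≥10 input reads and ≥1 read per output. Fitness is the base-2 logarithm of genotype enrichment over wild-type enrichment, using inverse-variance-weighted replicate averages.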

Row | Variant | polymerase ribozyme fitness (log ratio)
1 | A49C A66G | ≤ -4.2
2 | A49C A66U | ≤ -4.2
3 | A49C A66U C85G G136A | ≤ -4.2
4 | A49C A66U G94C | ≤ -4.2
5 | A49C A73G C93U U127A | ≤ -4.2
6 | A49C A73U C93U | ≤ -4.2
7 | A49C A89C | ≤ -4.2
8 | A49C A91G A107G C114U | ≤ -4.2
9 | A49C A91U G94C C132U G136C | ≤ -4.2
10 | A49C A91U U101A A120U | ≤ -4.2
11 | A49C A97G | ≤ -4.2
12 | A49C A107G U151C | ≤ -4.2
13 | A49C A110G | ≤ -4.2
14 | A49C A110G A150G | ≤ -4.2
15 | A49C A110G G152C | ≤ -4.2
16 | A49C A120G | ≤ -4.2
17 | A49C A122G A142C | ≤ -4.2
18 | A49C A122U C132G | ≤ -4.2
19 | A49C A138G | ≤ -4.2
20 | A49C A142U | ≤ -4.2
21 | A49C C51A A64C C76G A110G A138U | ≤ -4.2

Row | Variant | polymerase ribozyme fitness (log ratio)
22 | A49C C51A A97U U109G C125G U135C A147G | ≤ -4.2
23 | A49C C51A C57U G70A C85G U109G G126A U145A | ≤ -4.2
24 | A49C C51A C63G G68A C79G U90A A91U C95G C108U C114U U135G | ≤ -4.2
25 | A49C C51G G88U | ≤ -4.2
26 | A49C C51U | ≤ -4.2
27 | A49C C54A C72G C79U C87U A89G C93U C96U C103A | ≤ -4.2
28 | A49C C54A G68A C116G | ≤ -4.2
29 | A49C C54A G74C C99G U135G | ≤ -4.2
30 | A49C C54G | ≤ -4.2
31 | A49C C54U U56A C63A G70C C87U A98U | ≤ -4.2
32 | A49C C57G A91U C108G A122G | ≤ -4.2
33 | A49C C57U A119G | ≤ -4.2
34 | A49C C57U C79G C87U | ≤ -4.2
35 | A49C C63A G65C C72G G84U U145A | ≤ -4.2
36 | A49C C63U G84A | ≤ -4.2
37 | A49C C69G | ≤ -4.2
38 | A49C C69G A89G A110U A142U | ≤ -4.2
39 | A49C C69U U77G C79A G84A C99A A113C C114G A142C | ≤ -4.2
40 | A49C C72U C85G G94A A97U | ≤ -4.2
41 | A49C C75A | ≤ -4.2
42 | A49C C75A C95U A115U C116U | ≤ -4.2

Row | Variant | polymerase ribozyme fitness (log ratio)
43 | A49C C75A G84A | ≤ -4.2
44 | A49C C75G C87A | ≤ -4.2
45 | A49C C75U C76G U90G A91U C103A C114G | ≤ -4.2
46 | A49C C76A C93G | ≤ -4.2
47 | A49C C85A A106C | ≤ -4.2
48 | A49C C85A C93U G124U C125G U146G | ≤ -4.2
49 | A49C C85A C105A A147C | ≤ -4.2
50 | A49C C85A C132A G141C | ≤ -4.2
51 | A49C C85G G88A A97G C103G A106G A142G | ≤ -4.2
52 | A49C C85U U104G U145A | ≤ -4.2
53 | A49C C87A C99U G117U C118U A142U | ≤ -4.2
54 | A49C C87A C125G | ≤ -4.2
55 | A49C C96G | -3.45
56 | A49C C99G A142G | ≤ -4.2
57 | A49C C103A G141C | ≤ -4.2
58 | A49C C103G A142C | ≤ -4.2
59 | A49C C108A A110G C118U | ≤ -4.2
60 | A49C C116A G143C | ≤ -4.2
61 | A49C C118A C149G | ≤ -4.2
62 | A49C C118U | ≤ -4.2
63 | A49C C118U G141C | ≤ -4.2

Row | Variant | polymerase ribozyme fitness (log ratio)
64 | A49C C123G | ≤ -4.2
65 | A49C C123G G126A | ≤ -4.2
66 | A49C C149A | ≤ -4.2
67 | A49C G50A C54U C96A G136A | ≤ -4.2
68 | A49C G50C C57U G68U G143A | ≤ -4.2
69 | A49C G50C G80U C85G U151A | ≤ -4.2
70 | A49C G50U U78G C85U A97G U102G A107U A142C | ≤ -4.2
71 | A49C G59C | ≤ -4.2
72 | A49C G59C A89U | ≤ -4.2
73 | A49C G62A C87A G140C | ≤ -4.2
74 | A49C G62A G84U G126A | ≤ -4.2
75 | A49C G62U A64G A73G C85G C114U G128U | ≤ -4.2
76 | A49C G65U G83U A89U C93A G133U U151C | ≤ -4.2
77 | A49C G65U G84U C96U A121U C125G | ≤ -4.2
78 | A49C G68A G84U C114A A119U | ≤ -4.2
79 | A49C G70A C96U U148G | ≤ -4.2
80 | A49C G71A | ≤ -4.2
81 | A49C G71A G92U A115G U135C U146A | ≤ -4.2
82 | A49C G71C C85G C123A | ≤ -4.2
83 | A49C G74U A122U C131G U145A U146A | ≤ -4.2
84 | A49C G74U G81C C99G A137U | ≤ -4.2

— the RNAGym collection of RNA variant scans (doi:10.1073/pnas.2313332121)
